Where “and” joins values, the source holds several entries; their conditions need not be identical. Identical values can stand only once. Among all 340,000 compounds or so, about 2,100 (0.62%) were called active.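 How the source made its calls: active means first-screen hits whose inhibition reached a set limit at any dose in the follow-up dose series; inconclusive means inhibition above the set first-screen limit but never retested; inactive means the rest.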 Inconclusive means that the source gave no clear call.
The compounds below were run against Rac GTPase-activating protein 1 (Homo sapiens) (UniProt Q9H0H5) (assay: MgcRacGAP GTPase-activating activity inhibitors, confirmation, biochemical, ADP Hunter fluorescence, primary and confirmatory (AID 624330;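 further: fluorescence reports GDP produced by GAP-driven GTP hydrolysis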)). Conditions: MgcRacGAP-stimulated Rac1 GTP hydrolysis, at 30 µM, stronger effect = higher value.
Sequence of UniProt Q9H0H5 (Q9H0H5 whole entry, looked up): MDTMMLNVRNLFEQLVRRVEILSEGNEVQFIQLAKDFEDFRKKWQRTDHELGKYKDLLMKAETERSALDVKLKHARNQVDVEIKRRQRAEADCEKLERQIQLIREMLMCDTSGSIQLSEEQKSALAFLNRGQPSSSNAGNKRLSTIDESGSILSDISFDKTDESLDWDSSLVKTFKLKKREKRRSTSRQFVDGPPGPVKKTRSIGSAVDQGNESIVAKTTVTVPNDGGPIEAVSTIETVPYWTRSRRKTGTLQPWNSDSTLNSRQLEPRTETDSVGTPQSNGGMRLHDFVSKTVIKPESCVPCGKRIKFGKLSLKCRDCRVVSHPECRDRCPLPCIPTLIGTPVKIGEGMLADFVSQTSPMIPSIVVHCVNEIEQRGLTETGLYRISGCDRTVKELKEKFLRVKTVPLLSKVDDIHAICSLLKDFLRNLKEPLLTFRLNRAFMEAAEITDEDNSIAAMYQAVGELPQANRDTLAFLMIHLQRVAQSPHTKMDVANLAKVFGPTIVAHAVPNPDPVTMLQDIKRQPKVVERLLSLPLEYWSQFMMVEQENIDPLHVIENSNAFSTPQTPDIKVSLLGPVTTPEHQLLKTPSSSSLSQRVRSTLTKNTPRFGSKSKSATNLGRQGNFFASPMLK

SMILES	inhibition
COc1cc2c(cc1O)C[C@H]1NCCc3cc4c(c-2c31)OCO4	inconclusive: 39.6%
COC(=O)C1=Nc2ccccc2/C1=C\c1c(O)n(-c2cc(OC)ccc2OC)c(=O)[nH]c1=O	inconclusive: 38.8%
Cc1cc(/C=C2\C(=O)NC(=O)N(Cc3ccccc3)C2=O)c(C)n1-c1ccc(Cl)c(C(=O)O)c1	inconclusive: 44.2%
COc1ccc(OC)c(CN2CCN(C(=O)Cc3ccccc3)CC2)c1	inconclusive: 32%
O=c1[nH]c(O)c(/C=C2\C=NN=C2c2ccccc2)c(=O)[nH]1	inconclusive: 44.2%
NN=C1C(Cl)=C(Cl)C(Cl)=C1Cl	inconclusive: 33.3%
CN1CCc2cc(O)cc3c2[C@H]1Cc1ccc(O)c(O)c1-3	inconclusive: 66.3%
COc1ccc(-n2c(/C=C/c3ccc(O)c(O)c3)nc3ccccc3c2=O)cc1	inconclusive: 51.4%
O=C1NC(=S)N(c2ccc(F)cc2)C(=O)/C1=C\c1ccoc1	inconclusive: 91.4%
COC(=O)C1=Nc2ccccc2/C1=C\c1c(O)n(-c2ccc(Br)cc2)c(=O)[nH]c1=O	inconclusive: 32.7%
Cc1cccc(N2C(=O)NC(=O)/C(=C\C=C\c3ccco3)C2=O)c1	inconclusive: 39.2%
Clc1ccc(OCC#CCN2CCOCC2)cc1	inconclusive: 34.1%
C[n+]1c(-c2ccccc2)c2cc(N)ccc2c2ccc(N)cc21	inconclusive: 42.5%
O=c1c2ccccc2[se]n1-c1ccccc1	inconclusive: 79.5%
N#CC(C#N)=Cc1ccc(O)c(O)c1	inconclusive: 40.1%
COc1cc(/C=C/c2nc3ccccc3c(=O)n2-c2ccc(O)cc2)ccc1O	inconclusive: 52.7%
Cc1cccc(OCC(=O)N2CCN(Cc3cccnc3)CC2)c1	inconclusive: 33.6%
O=c1[nH]sc2cc(F)ccc12	inconclusive: 72%
CN1C(=O)NC(=O)/C(=C\c2ccc([N+](=O)[O-])o2)C1=O	inconclusive: 63.8%
O=C1NC(=O)C(=Cc2ccc(Oc3ccc([N+](=O)[O-])cc3)cc2)C(=O)N1	inconclusive: 32.4%
COc1cc(CN2CCN(C(=O)Cc3ccccc3)CC2)cc(OC)c1OC	inconclusive: 33.1%
CNC(=O)Oc1ccc(-c2cn3cc(Cl)ccc3n2)cc1	inconclusive: 105%

SMILES	inhibition
COc1ccccc1CCNCc1ccc(OC)c(OC)c1OC	inconclusive: 35.8%
c1ccc2c(CN3CCCCCCC3)c[nH]c2c1	inconclusive: 32.7%
Cc1cccc(N2C(=O)NC(=O)/C(=C/c3cc4c(cc3[N+](=O)[O-])OCO4)C2=O)c1	inconclusive: 33.6%
CCN1C(=O)C(=C/C=C/c2ccco2)C(=O)N(CC)C1=S	inconclusive: 49%
Cc1ccc(C(C)C)c(OCC#CCN2CCCC2)c1	inconclusive: 36%
Cc1oc(C(=O)Nc2ccc(O)cc2)cc1COc1ccccc1	inconclusive: 58.3%
O=C(O)CCC(=O)NCCC1=c2ccccc2=N/C1=C\c1c(O)n(Cc2ccc(F)cc2)c(=S)[nH]c1=O	inconclusive: 50.9%
C[CH2][Hg][S]c1ccccc1C(=O)O	inconclusive: 37.6%
COc1ccc(CN2CCN(Cc3ccccc3F)CC2)cc1	inconclusive: 32.1%
COc1ccccc1N1CCN(Cc2ccc(SC)cc2)CC1	inconclusive: 34.3%
CCN(CC)c1ccc(/C=C2\C(=O)NC(=O)N(CC3CCCO3)C2=O)cc1 (stereo not given)	inconclusive: 34.5%
Cc1ccc(OCC(=O)N2CCN(Cc3cccnc3)CC2)cc1	inconclusive: 32.1%
CCCCN1C(=O)/C(=C/C=C/c2ccco2)C(=O)NC1=S	inconclusive: 61.1%
Cc1cc(/C=C2\C(=O)NC(=O)N(Cc3ccco3)C2=O)c(C)n1-c1ccc(C(=O)O)cc1	inconclusive: 32.4%
CC(=O)c1cccc(OCC(O)CN2CC=C(c3ccccc3)CC2)c1 (stereo not given)	inconclusive: 32.1%
Cc1ccccc1-n1c(O)c(C=Nc2ccc(N(C)C)cc2)c(=O)[nH]c1=O	inconclusive: 81.7%
CC1=Nc2ccccc2/C1=C/c1c(O)[nH]c(=O)[nH]c1=O	inconclusive: 35.8%
COc1ccc(N2C(=O)NC(=O)/C(=C\c3ccc([N+](=O)[O-])s3)C2=O)cc1	inconclusive: 40.7%
CN(C)[C@@H]1C(=O)C(C(N)=O)=C(O)[C@@]2(O)C(=O)C3=C(O)c4c(O)cccc4[C@@](C)(O)C3[C@H](O)C12 (stereo not given in full)	inconclusive: 34.8% and inconclusive: 36.2%
COc1cccc(-n2c(/C=C/c3ccc(O)c(O)c3)nc3ccccc3c2=O)c1	inconclusive: 54.9%
CN1CCN(/N=C/c2c[nH]c3ccccc23)CC1	inconclusive: 73.7%
O=C1NC(=O)N(c2cccc(Cl)c2)C(=O)/C1=C\c1ccc(Sc2nc3ccccc3[nH]2)o1	inconclusive: 60.6%

SMILES	inhibition
COc1cc(OC)c(OC)cc1CN1CCN(C(=O)Cc2ccccc2)CC1	inconclusive: 32.3%
CN(C)[C@@H]1C(=O)C(C(N)=O)=C(O)[C@@]2(O)C(=O)C3=C(O)c4c(O)cccc4[C@@](C)(O)[C@H]3[C@H](O)[C@@H]12	inconclusive: 63%
O=C1NC(=O)C(=Cc2ccc(OCCOc3ccc([N+](=O)[O-])cc3)cc2)C(=O)N1	inconclusive: 56%
O=C(O)Cn1cc(/C=C2\C(=O)NC(=O)N(Cc3ccco3)C2=O)c2ccccc21	inconclusive: 54%
O=C(O)c1cc[c]([Hg][Cl])cc1	inconclusive: 60.8%
Oc1cc(O)cc(/C=C/c2ccc(O)cc2O)c1	inconclusive: 74.7%
CCN(CC)C(=O)c1ccc2c(c1)C1C=CCC1C(C(=O)O)N2 (stereo not given)	inconclusive: 32.9%
O=C1NC(=O)N(Cc2ccco2)C(=O)/C1=C/C=C/c1ccco1	inconclusive: 74.5%
NS(=O)(=O)c1ccc(-c2ccc(C=C3C(=O)NC(=O)NC3=O)o2)cc1	inconclusive: 43.9%
CNC(=O)Oc1cccc(-c2cn3cc(OC(=O)NC)ccc3n2)c1	inconclusive: 73.4%
COc1cc(/C=C/C(=O)c2c(O)n(CCc3ccccc3)c(=O)[nH]c2=O)ccc1O	inconclusive: 36.6%
Nc1ccc(N2CCN(Cc3ccccc3Cl)CC2)c(Cl)c1	inconclusive: 33.2%
O=C1NC(=O)C(=Cc2ccc(-c3ccc(F)cc3O)o2)C(=O)N1	inconclusive: 33%
CN(C)c1nc(-c2ccccc2)[n+](C)s1	inconclusive: 41.3%
CCN(CC)C(=O)Cn1cc(/C=C2\C(=O)NC(=O)N(c3ccccc3F)C2=O)c2ccccc21	inconclusive: 62%
Cc1ccc(/C=C2\C(=O)NC(=O)N(CC3CCCO3)C2=O)s1 (stereo not given)	inconclusive: 35.9%
CCN1CCN(c2ccc(N)cc2)CC1	inconclusive: 104%
CCN(CC)C(=O)c1ccc2c(c1)C1C(Cl)C(Sc3ccccc3[N+](=O)[O-])CC1C(C(=O)O)N2 (stereo not given)	inconclusive: 42.7%
O=C1NC(=S)NC(=O)C1=Cc1ccc(Br)s1	inconclusive: 55.1%
CN1C(=O)/C(=C/C=C/c2ccco2)C(=O)NC1=S	inconclusive: 60.6%
COC(=O)C1=C(C(=O)OC)SC2(S1)C(C(=O)OC)=C(C(=O)OC)Sc1c2ssc1=O	inconclusive: 87.6%
O=C1NC(=O)C(=Cc2cc3c(cc2[N+](=O)[O-])OCO3)C(=O)N1	inconclusive: 38.2%

SMILES	inhibition
O=C(O)c1cccc2c1NC(C(=O)O)C1CC(Sc3ccccc3[N+](=O)[O-])C(Cl)C21 (stereo not given)	inconclusive: 52%
c1cc2c(cc1CCNC1CCCCCC1)OCO2	inconclusive: 35.8%
O=C1NC(=O)N(c2ccccc2)C(=O)/C1=C/c1ccc([N+](=O)[O-])s1	inconclusive: 39.2%
CN(C)C(=S)SSC(=S)N(C)C	inconclusive: 69.4%
CC(Cc1ccccc1Sc1ccc(O)cc1)N(C)C (stereo not given)	inconclusive: 91.8%
C=C1C(=O)O[C@@H]2C[C@@H](C)[C@@H]3C=CC(=O)[C@@]3(C)[C@@H](OC(=O)CC(=O)O[C@H]3[C@@H]4C(=C)C(=O)O[C@@H]4C[C@@H](C)[C@@H]4C=CC(=O)[C@]43C)[C@H]12	inconclusive: 42.6%
O=C1NC(=S)NC(=O)C1=Cc1cccn1-c1ccc(O)cc1	inconclusive: 76.2%
CCCN1CCc2cc(O)cc3c2[C@H]1Cc1ccc(O)c(O)c1-3	inconclusive: 50.9%
COc1ccc(OC)c(N2C(=O)NC(=O)/C(=C\c3ccc([N+](=O)[O-])s3)C2=O)c1	inconclusive: 47.2%
CCN1CCN(c2ccc(N)cc2C)CC1	inconclusive: 83.3%
COc1ccc(/C=C2/C(=O)N(Cc3ccco3)C(=O)N(C(C)C)C2=O)cc1	inconclusive: 37%
O=C1NC(=O)N(Cc2ccc(F)cc2)C(=O)/C1=C/c1cccs1	inconclusive: 53.6%
Cc1ccc2c(c1)=NC(=O)/C(=C/c1c(O)[nH]c(=O)[nH]c1=O)C=2	inconclusive: 34.6%
COc1ccc(OCC#CCN2CCNCC2)cc1	inconclusive: 33.1%
O=C(O)Cn1cc(/C=C2\C(=O)NC(=O)N(c3ccc(Br)cc3)C2=O)c2ccccc21	inconclusive: 34.5%
COc1ccccc1CN1CCN(C(=O)Cc2ccccc2)CC1	inconclusive: 33.3%
CCN(CC)c1ccc(/C=C2/C(=O)NC(=O)N(CC3CCCO3)C2=O)cc1 (stereo not given)	inconclusive: 44.5%
COP(=S)(OC)SCN1C(=O)c2ccccc2C1=O	inconclusive: 36.1%
O=C(Cc1ccccc1)N1CCN(Cc2cccc(Br)c2)CC1	inconclusive: 33.5%

Source: PubChem BioAssay AID624330 (Southern Research Specialized Biocontainment Screening …, 2012)
